Results on 59 compounds are retold here after PubChem BioAssay AID360 (National Center for Advancing Translational Sciences (NCATS), 2006).

In all, about 48,000 compounds went through this assay and about 550 (1.1%) were called active. Not shown: some 4% with an inconclusive outcome. Cut-off read from the data, not from the text of the source: active = potency below about 15 µM; inconclusive = mostly about 16 µM to 33 µM; inactive = weaker than that. This is one part of the list.
Potency is the fitted concentration of half-maximal effect.

This experiment concerns the target Lysosomal acid glucosylceramidase (Homo sapiens) (UniProt P04062). The experiment in a line: Glucocerebrosidase.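 Note: the screen sought inhibitors.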 As to conditions: purified enzyme, resorufin glucoside fluorescence (screen aimed at inhibitors), 20 min; series mostly up to 77 µM. Put shortly: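 Normal human glucocerebrosidase (0.2 nM final) was assayed with resorufin β-D-glucopyranoside (30 uM final) in 50mM citric acid/KH2PO4, 10mM sodium taurocholate, 0.01% tween-20, pH 5.9. Compounds were titrated; fluorescence (Ex 548, Em 600) read after 20 min at RT.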
Sequence of UniProt P04062 (P04062 whole entry, looked up): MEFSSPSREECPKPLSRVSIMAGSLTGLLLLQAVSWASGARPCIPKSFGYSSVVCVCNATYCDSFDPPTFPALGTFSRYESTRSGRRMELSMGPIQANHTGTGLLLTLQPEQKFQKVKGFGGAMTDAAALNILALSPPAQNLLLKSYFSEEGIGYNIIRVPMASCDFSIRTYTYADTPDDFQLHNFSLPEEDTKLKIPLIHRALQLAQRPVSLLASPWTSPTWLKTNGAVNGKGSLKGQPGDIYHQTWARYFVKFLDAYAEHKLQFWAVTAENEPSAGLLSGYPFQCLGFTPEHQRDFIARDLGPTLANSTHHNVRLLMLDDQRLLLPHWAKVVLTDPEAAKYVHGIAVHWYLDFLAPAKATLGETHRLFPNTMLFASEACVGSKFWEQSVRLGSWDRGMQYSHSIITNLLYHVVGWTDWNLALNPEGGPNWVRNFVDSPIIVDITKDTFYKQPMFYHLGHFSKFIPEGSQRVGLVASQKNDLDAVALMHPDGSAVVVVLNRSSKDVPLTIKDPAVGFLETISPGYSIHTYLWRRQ
As to `Cc1c(NC(=O)C2CC(c3c(F)cccc3Cl)=NO2)c(=O)n(-c2ccccc2)n1C` (centres undefined), the Potency was inactive: > 76.9 µM.

In the case of `O=C(CNC(=O)C12CC3CC(CC(C3)C1)C2)NC1=NCCS1`, the Potency was inactive: > 76.9 µM.

For `CCOC(=O)N1CCC(NC(=O)c2cn(-c3ccc(OC)cc3)c(=O)c3ccccc23)CC1`, the Potency is inactive: > 76.9 µM. Consider `CC(C)(C)c1cc(C(=O)N2CCN(c3ncccn3)CC2)ccn1`, for which the Potency is inactive: > 76.9 µM.

As to `O=c1oc2ccccc2c(O)c1C=NCc1ccccn1`, the Potency was inactive: > 76.9 µM. Next, `CC(C)C[C@H](NC(=O)NCc1ccccc1Cl)C(=O)O`: inactive: > 76.9 µM; `COCCOC(=O)c1c(C)oc2ccc(OC(=O)c3ccc4c(c3)OCO4)cc12`: inactive: > 76.9 µM; `CC(C)N(Cc1nc(-c2ccc(Cl)cc2)no1)C(=O)c1cccs1`: inactive: > 76.9 µM. As to `Cc1cc(NC(=O)c2cc3ncc(Br)cn3n2)no1`, the Potency was inactive: > 76.9 µM. For the compound `Cc1ccccc1-c1nc(CS(=O)CC(=O)NCCN2CCN(Cc3ccccc3)CC2)c(C)o1` (centres undefined), the Potency was inactive: > 76.9 µM. Take `O=C(Cn1c(=O)sc2ccccc21)Nc1ccc2c(c1)OCCO2`: the Potency is inactive: > 76.9 µM. On to `O=C(Oc1ccc2c(c1)OCO2)c1ccc(F)cc1Cl`, for which the Potency was inactive: > 76.9 µM. `COC(=O)c1c(N)nc(C)n1-c1ccc(OC)cc1`: the Potency is inactive: > 76.9 µM.

On to `CCSCCNC(=O)c1cncc(Br)c1`, for which the Potency was inactive: > 76.9 µM.

`CC(=O)N1CCc2cc(S(=O)(=O)CCC(=O)Nc3ccc4c(c3)OCCO4)ccc21`: the Potency is inactive: > 76.9 µM. Turning to `Nc1nc(CN2CCN(c3cccc(Cl)c3)CC2)nc(N2CCCc3ccccc32)n1`, the Potency was active: 13.8 µM. Consider `CCOC(=O)CSc1nnc(-c2ccco2)n1C`, for which the Potency was inactive: > 76.9 µM. Next, `CCOc1cc(S(=O)(=O)N2CC=C(c3ccc(F)cc3)CC2)c(OCC)cc1-n1cnnn1`: inactive: > 76.9 µM; `COc1ccc(NC(=O)Nc2ccccc2C(=O)N2CCCC2)cc1`: inactive: > 76.9 µM. Turning to `O=C(c1cccc(F)c1)N1CCN(CC2CC3C=CC2C3)CC1` (centres undefined), the Potency was inactive: > 76.9 µM. Take `COc1cccc(-c2c(NC(=O)c3ccco3)n(-c3ccc(C)cc3)nc(C)c2=O)c1`: the Potency is inactive: > 76.9 µM. Consider `Cc1ccc2nc(CSc3nnc(-c4ccco4)n3-c3ccccc3)cc(=O)n2c1`, for which the Potency is inactive: > 76.9 µM. For `Cc1cccc(OCc2nnc(N)s2)c1` the value was inactive: > 76.9 µM. As to `CCc1ccc2c(c1)CCCN2C(=O)c1ccccc1C(=O)O`, the Potency was inactive: > 76.9 µM. For `Brc1ccc(-c2nn3c(-c4ccncc4)nnc3s2)o1` the value was inactive: > 76.9 µM. Next, `Cc1cc2oc(=O)cc(CN3CCc4ccccc43)c2cc1Cl`: inactive: > 76.9 µM; `COc1cc(C(=O)Nc2nnc(-c3sccc3C)s2)cc(OC)c1OC`: inactive: > 76.9 µM; `CCOC(=O)CN=C1CC(C)(C)CC2=C1Sc1ncnc(N(C)C)c1N2`: inactive: > 76.9 µM.

In the case of `COC(=O)c1c(-c2ccncc2)csc1NC(=O)c1ccoc1C`, the Potency is inactive: > 76.9 µM. Next, `Cn1nnnc1SCC(=O)N1CCN(Cc2ccccc2)CC1`: inactive: > 76.9 µM.

For `Cc1cc(C)n(CC(=O)O)n1`, the Potency was inactive: > 76.9 µM. Next, `O=C(Nc1ccc2c(c1)OCCO2)C1CCC1`: inactive: > 76.9 µM; `O=C(O)c1ccccc1S(=O)(=O)c1ccccc1CO`: inactive: > 76.9 µM; `CCN(CC)S(=O)(=O)N1CCC(C(=O)NCCN2CCOCC2)CC1`: inactive: > 76.9 µM. For `COCCCN1C(=O)C(O)=C(C(C)=O)C1c1ccccn1` (centres undefined) the value was inactive: > 76.9 µM; for `COc1ccc(Cl)cc1C(=O)Nn1c(C)nc2ccccc2c1=O`, inactive: > 76.9 µM; for `CCN(CC)S(=O)(=O)c1cccc(C(=O)OCC(=O)N2CC(=O)Nc3ccccc32)c1`, “inactive”. For `COc1ccc(OC)c(NC(=O)C2CCCC2)c1` the value was inactive: > 76.9 µM. For `O=C(CN1CCN(Cc2ccccc2)CC1)c1c[nH]c2ccccc12`, the Potency is inactive: > 76.9 µM.

On to `CCC(C)NC(=O)Cn1c(=O)n(-c2ccccc2)c(=O)c2ccc(C(=O)NCc3ccco3)cc21` (centres undefined), for which the Potency is inactive: > 76.9 µM.

Take `CCCCOc1ccc(NC(=O)c2cnc(C)cn2)cc1`: the Potency is inactive: > 76.9 µM.

On to `CC(=O)Nc1ccc(S(=O)(=O)N(C)S(=O)(=O)c2ccc(F)cc2)cc1`, for which the Potency was inactive: > 76.9 µM. Next, `N=c1ccn(Cc2ccc(Cl)cc2)cc1`: inactive: > 76.9 µM; `O=C(Nc1ccccc1C(=O)OCC(=O)N1CCc2ccccc2C1)c1ccco1`: inactive: > 76.9 µM; `O=C(O)CSC1CC(=O)N(c2cccc(Cl)c2)C1=O` (centres undefined): inactive: > 76.9 µM. In the case of `O=C(Cn1nnc(-c2ccccc2NC(=O)C2CC2)n1)NC1CCCCC1`, the Potency is inactive: > 76.9 µM.

With `O=C(Cn1nnc(-c2ccccc2F)n1)Nc1cccc2ncccc12`, the Potency was inactive: > 76.9 µM. As to `CC(C)OC(=O)CSc1nc2ccccc2s1`, the Potency is inactive: > 76.9 µM. For the compound `CNC(=O)COC(=O)c1cc(F)c(F)cc1Cl`, the Potency was inactive: > 76.9 µM. For `CC(C)[C@H](NC(=O)Nc1ccc(Oc2ccccc2)cc1)C(=O)O` the value was inactive: > 76.9 µM. As to `Nn1cnnc1SCC(=O)Nc1ccc2c(c1)OCCO2`, the Potency was inactive: > 76.9 µM.

With `O=C(Nc1nnc(-c2ccco2)s1)C1CCCCC1`, the Potency was inactive: > 76.9 µM. `N#C/C(=C\c1ccc[nH]1)S(=O)(=O)c1ccccc1`: the Potency was inactive: > 76.9 µM. Turning to `COCCCN1C(=O)C(O)=C(C(=O)c2ccco2)C1c1ccccc1` (centres undefined), the Potency was inactive: > 76.9 µM. With `COc1ccc(OC)c(C2C(C(=O)N(C)C)=C(C)Nc3nc4ccccc4n32)c1` (centres undefined), the Potency is inactive: > 76.9 µM.

Turning to `CCCN1C(=O)C2C(C(=O)Nc3cccc(OC)c3)C3C=CC2(O3)C1C(=O)NC1CCCCC1` (centres undefined), the Potency was inactive: > 76.9 µM. As for `CCOC(=O)c1sc2c(c1C)C(c1cccs1)C1=C(CCCC1=O)N2` (centres undefined), the Potency was inactive: > 76.9 µM.

On to `COc1ccc(CNC(=O)Cn2cnc3c(=O)n(C)c(=O)n(C)c32)cc1`, for which the Potency was inactive: > 76.9 µM. For `CCCCOC(=O)c1ccc(NC(=O)C(CCS(C)(=O)=O)NC(C)=O)cc1` (centres undefined) the value was inactive: > 76.9 µM.
